{"source": "paper PMC12136788", "binders": {"B1": {"name": "chr6:15520333:15520434:+|3pUTR|ENSG00000008083|unk|total|mutant (ssRNA)", "RNA": "GGGAGUUCUACAGUCCGACGAUCCUUGCUGCCGGAUUCAAGCUGUCUUUGCACCCGCUCUAAAGAAGAUUUUCUUCUGGUUUCCGAGAACUAAUUUUGUUUCCGCAUUAAACUGUUGAACUUUUUUUUGUACUCCGAAAACCUCAACAGAGGAUUGAGCAUCA"}, "B2": {"name": "chr7:56058368:56058516:+|CDS|ENSG00000146731|unk|total|mutant (ssRNA)", "RNA": "GGGAGUUCUACAGUCCGACGAUCUACAAGAGUGCAGAAGAGAGAGAAAAACUCGUGAAAGCUGAAAGAAAAUUCAUUGAAGACCGGGUUAAAAAAAUAACCGAACUGAAAAGGAAAGUCUGUGGCGAUUCAGAUAAAGGAUUUCAACAGAGGAUUGAGCAUCA"}, "B3": {"name": "chr13:99866285:99866388:+|CDS|ENSG00000125246|unk|total|mutant (ssRNA)", "RNA": "GGGAGUUCUACAGUCCGACGAUCUAUUCUCUACGCCCGGCAAAAGAUUGUUGUCACCGCGAAAGCCUUUGGUCUCCAAGCCACCGAUCUGGUGUACAUUGACUUUCGAGAUGGAGCUGGGCUGCUCCGACAGUCACGAGAAGGCAACAGAGGAUUGAGCAUCA"}, "B4": {"name": "chr16:84129640:84129741:-|CDS|ENSG00000103160|unk|total|mutant (ssRNA)", "RNA": "GGGAGUUCUACAGUCCGACGAUCCUUGCAAUAUGAAUAUGCCUCUAAAGGAAUCUUUGUACAGAGUCUAAUCCCUUUCUAUGCCGCCACCAGCAUGACAGCACCCAGCAACUUUCUGCACAGGUGCUCGUGGUUGGUGCCUUCCAACAGAGGAUUGAGCAUCA"}, "B5": {"name": "chr19:42297191:42297292:-|CDS|ENSG00000079462|unk|total|mutant (ssRNA)", "RNA": "GGGAGUUCUACAGUCCGACGAUCCCGACAGGUGAACGAGCUGGUACGGGCGGCACUGGCUGGCCACCCUCGGGCCCACUUCCCCGAUGCCGACCCUGGCUUUGUGCACUCAGAUGGCACCAUCAGCCAUCAUGACAUGUAUGACAACAGAGGAUUGAGCAUCA"}, "B6": {"name": "chr7:39987650:39987751:+|CDS|ENSG00000065883|unk|FALSE|unique (ssRNA)", "RNA": "GGGAGUUCUACAGUCCGACGAUCUCUAGGCAUUCAAGAUCUCGUAGCAGGCACAGAUUGUCUAGAUCCAGAAGUCGUCAUUCUAGUAUUUCUCCUAGCACACUAACUCUGAAGAGUAGCCUGGCAGCUGAAUUGAACAAGAAUCAACAGAGGAUUGAGCAUCA"}, "B7": {"name": "chr1:48532853:48534172:-|three_prime_utr|ENSG00000186094|control|control|control (ssRNA)", "RNA": "GGGAGUUCUACAGUCCGACGAUCGUCUUAUGGGGACAGGAGCAUGCAUUUUCUGCUGGGGAAUGAAAUUAAUCACUCUUCUCUAGCUUCCAAGGAUUUGUGGAUUAAUGCAUAGGCUAGUGAAAGGGAAGGGAUACAAUGAGACAACAGAGGAUUGAGCAUCA"}, "B8": {"name": "ENSG00000182446:stop:overlap|stop_codon|ENSG00000182446|stop_codon|NA|stop_codon (ssRNA)", "RNA": "GGGAGUUCUACAGUCCGACGAUCGCACGUUCAUGAACCAGCCAGGCACAGGCCACUGCGAGAUGUGCAGCCUCCCCAGGACCUAGGGCGCCUGCCCUCUGCUGGCUAGGACCGGGCCCAGCCCAGCCCUUCCUGAAGCCAGAACAACAGAGGAUUGAGCAUCA"}, "B9": {"name": "chr17:28717212:28717708:-|CDS|ENSG00000109113|control|control|control (ssRNA)", "RNA": "GGGAGUUCUACAGUCCGACGAUCGGUGGUCGUAGCGUCUCCGAGACCGCGGACUCCCGUAGGGUCCCCGUGGCCCCGAGUUGUAGUCGGGACACCCCGGCCGCGGGUGAUCGUCGGGUCUCCACGCGCCCGGGUCGCUGACGCCAACAGAGGAUUGAGCAUCA"}, "B10": {"name": "chr22:29695108:29695209:+|3pUTR|ENSG00000186575|msi1|total|mutant (ssRNA)", "RNA": "GGGAGUUCUACAGUCCGACGAUCGUGUGUGUGUGUCUUGCACUCCAGAGCUGACCUCCACCGCCCAGCCUGGGAAGUCAUUGCCGGGAGUGAGACACUGAAGCCCUGAGAAGCCAGUGCCAUCAUCCCCACCCCGCCCAGGGUCAACAGAGGAUUGAGCAUCA"}, "B11": {"name": "chr7:100040983:100041096:+|3pUTR|ENSG00000106261|unk|FALSE|bound_elsewhere (ssRNA)", "RNA": "GGGAGUUCUACAGUCCGACGAUCGAUAGCCAAGCAAAAUCAGUAAUUAUUUUAAAAUGAACAUAUGUAUUUUUAUUAACUUUUAGUUAAAUACAGAUUUUACAACGAGGUCAGCAUAAGCCUAAAUCUAUAUAGAGGGCUAACCAACAGAGGAUUGAGCAUCA"}, "B12": {"name": "chr3:94060950:94061511:-|CDS|ENSG00000178700|control|control|control (ssRNA)", "RNA": "GGGAGUUCUACAGUCCGACGAUCAGUAGACAUGAUUUGGAUAGUUGGUGGCAGUUCUGUUUAUAAGGAAGCCAUGAAUCACCUAGGCCAUCUUAAACUAUUUGUGACAAGGAUCAUGCAGGACUUUGAAAGUGACACGUUUUUCAACAGAGGAUUGAGCAUCA"}, "B13": {"name": "chr4:41699229:41699330:+|3pUTR|ENSG00000064042|msi1|FALSE|unique (ssRNA)", "RNA": "GGGAGUUCUACAGUCCGACGAUCGAUUACAUGAAUAUUGCACAUUCCCUUCUGGUUUCACAAACCCAUUUAUACAUAUUUCUUAGUGAGGCUCAUUGUACAUGUAUUGAAGCUAGAAUCGAGUCAAGAAAAAUAAAGCCCCAUCAACAGAGGAUUGAGCAUCA"}, "B14": {"name": "ENSG00000198589:be:win_7651|CDS|ENSG00000198589|bound_else_gene|NA|bound_elsewhere_windowed (ssRNA)", "RNA": "GGGAGUUCUACAGUCCGACGAUCGACCAGCCAUACCAGCUGCCAGUGGAAAUCGAUCCUCUCAUAGCCAGCAAUACAGGAAUGCACAGGAGGCAAAUCACUGACCUUUUAGACCAAAGUAUUCAAGUGCAUUCCCAGUGCUUUCAACAGAGGAUUGAGCAUCA"}, "B15": {"name": "chr17:28897780:28898440:-|three_prime_utr|ENSG00000167536|control|control|control (ssRNA)", "RNA": "GGGAGUUCUACAGUCCGACGAUCUGAAGGAAUAAUGGGUGAUUAUUUCUUCCUGAGAGUGACAGUAACCCCAGAUGGAGAGAUAGGGGUAUGCUAGACACUGUGCUUCUCGGAAAUUUGGAUGUAGUAUUUUCAGGCCCCACCCAACAGAGGAUUGAGCAUCA"}, "B16": {"name": "chr9:121180810:121180911:-|3pUTR|ENSG00000119396|msi1|total|mutant (ssRNA)", "RNA": "GGGAGUUCUACAGUCCGACGAUCUUUGGAUAAAUUUCCUGUUGUGUGGGUGGCAUUUUUCUUAACGAGAUUUGCUUCUGUCUCCGCCUCACACAGGGAAAAUAUCCAUUUAUCUUCUCUCUCGUGCUUAAUUAACCGCUUUAUCAACAGAGGAUUGAGCAUCA"}, "B17": {"name": "chr1:213241217:213241334:+|CDS|ENSG00000136643|unk|total|mutant (ssRNA)", "RNA": "GGGAGUUCUACAGUCCGACGAUCAGUUCUCCAAGAACAUCAGAUUCCCUCAGCCGAUCAAAAAACCGCCCCAUGGAAUUCUUCCGGACCGACAGUAAGGACCGCGCAAGUGAACUCCUGGGACUUGACUUUGGAGAAAAAUUGCAACAGAGGAUUGAGCAUCA"}, "B18": {"name": "ENSG00000050165:stop:overlap|stop_codon|ENSG00000050165|stop_codon|NA|stop_codon (ssRNA)", "RNA": "GGGAGUUCUACAGUCCGACGAUCAGAUGGCGCUGAGGGAGCCUGCGGCUGCCGCCGCUGCACUGCUGGGAGGGGAAGAGAUUUAGAUCUGGACCAGGCUGUGGGUAGAUGUGCAAUAGAAAUAGCUAAUUUAUUUCCCCAGGUCAACAGAGGAUUGAGCAUCA"}, "B19": {"name": "chr6:75256125:75256201:-|CDS_3pUTR|ENSG00000112697|msi1_unk|FALSE|overlapping (ssRNA)", "RNA": "GGGAGUUCUACAGUCCGACGAUCUUUGGGGAUUGCUUACAUCGCUGUUGGAUCCAUCUCCUUCCUUCUGGGAGUUGUACUGCUAGUAAUUAAUCAUAAAUAUAGAAACAGUAGUAAUACAGCUGACAUUACCAUUUAAUUUUACAACAGAGGAUUGAGCAUCA"}, "B20": {"name": "ENSG00000107863:be:win_2901|CDS|ENSG00000107863|bound_else_gene|NA|bound_elsewhere_windowed (ssRNA)", "RNA": "GGGAGUUCUACAGUCCGACGAUCUCAUUCACUUUACCUGUACAAAGAUAAAAGAGAGCAGACGACUCCGUCUGAGGAAGAGCAGCCCAUCAGUGUUAAUGCUUGCUUGAUAGACAUCUCUUACAGUGAGACCAAGAGGAAAAACAACAGAGGAUUGAGCAUCA"}, "B21": {"name": "chr3:10940499:10940600:+|3pUTR|ENSG00000132164|unk|total|mutant (ssRNA)", "RNA": "GGGAGUUCUACAGUCCGACGAUCGGGGAGGGCAAUGUGGGGGCAGGGGAACAUGUCAUUGUGAUGACUUUUUUGAUAUUCAUCCGAAACAAUACAUCCUUUCUGAGAUAUUUACAGUAUUAUUAAAAAAUGAAAAAGGUUGUACAACAGAGGAUUGAGCAUCA"}, "B22": {"name": "chr5:74627411:74627511:-|3pUTR|ENSG00000171617|msi1_unk|FALSE|overlapping (ssRNA)", "RNA": "GGGAGUUCUACAGUCCGACGAUCUUUGUAAAACUGUUAUUUUUUUUUUUUUCACAAUGUGAAACUGAAGGUCAAUAAAUUAUUAGAGAUUUUCUCUUCAUUAUGUGUGUGGGUCUUCAUUUGAAUAAGACACAAUUUGAGGCACAACAGAGGAUUGAGCAUCA"}}, "note": "Some of the results follow."}
{"biological_target": "MSI1 full-length (mouse, UniProt Q61474 1-362)", "sequence (Q61474 whole entry)": "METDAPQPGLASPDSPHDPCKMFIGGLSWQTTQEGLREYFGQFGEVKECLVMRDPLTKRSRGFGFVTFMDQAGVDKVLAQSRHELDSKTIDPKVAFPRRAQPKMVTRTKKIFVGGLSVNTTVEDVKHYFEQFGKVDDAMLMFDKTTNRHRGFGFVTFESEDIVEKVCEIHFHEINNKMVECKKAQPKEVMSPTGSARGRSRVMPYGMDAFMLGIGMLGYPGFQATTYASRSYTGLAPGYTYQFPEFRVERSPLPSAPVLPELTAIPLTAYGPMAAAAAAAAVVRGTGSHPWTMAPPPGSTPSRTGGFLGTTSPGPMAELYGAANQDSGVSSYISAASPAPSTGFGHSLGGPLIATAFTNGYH", "assay": "nsRBNS (natural sequence RNA bind-n-seq); RBNS binding buffer (assumed for nsRBNS): 25 mM Tris pH 7.5, 150 mM KCl, 3 mM MgCl2, 0.01% Triton X-100, 500 ug/ml BSA, 20 U/ml SUPERase-In, 4 C; UNK is unkempt and MSI1 is Musashi-1; names of the RNAs are library labels; protein concentration not given here; high values mean tight binding", "units": {"binding signal": "enrichment R"}}
{"binder": "B1", "binding signal": 0.382}
{"binder": "B2", "binding signal": 0.292}
{"binder": "B3", "binding signal": 0.244}
{"binder": "B4", "binding signal": 0.286}
{"binder": "B5", "binding signal": 0.284}
{"binder": "B6", "binding signal": 0.357}
{"binder": "B7", "binding signal": 0.726}
{"binder": "B8", "binding signal": 0.246}
{"binder": "B9", "binding signal": 0.566}
{"binder": "B10", "binding signal": 0.483}
{"binder": "B11", "binding signal": 7.14}
{"binder": "B12", "binding signal": 0.444}
{"binder": "B13", "binding signal": 4.08}
{"binder": "B14", "binding signal": 0.938}
{"binder": "B15", "binding signal": 0.525}
{"binder": "B16", "binding signal": 0.522}
{"binder": "B17", "binding signal": 0.533}
{"binder": "B18", "binding signal": 3.27}
{"binder": "B19", "binding signal": 18.4}
{"binder": "B20", "binding signal": 0.536}
{"binder": "B21", "binding signal": 2.1}
{"binder": "B22", "binding signal": 0.47}
